First the molecules themselves.
B1: OR4K15 (parent)
chain: GUUAACGGUCAUAGGCCAUGGAAACUAGGAGCACCAUUUCGCUGCCAGUGAAGAAAUGAACAAAGAAAAUCUGGGCCAGGCAGGCAUCAAAAGAAAUAGUCUUGCGCUCAACCAGAAAGUCUGUAAUCAUUUUAAGGGUA

The source gives no read counts; variants with many changes may rest on few reads.

Variants of B1 are the subject of the data set. Kind of data set: self-cleavage, relative activity (ratio to wild type); higher = more cleavage; in vitro, sequencing; the parent is a self-cleaving ribozyme.
Regarding GUUAACGGUCUUAGGCCAUGGAAACUGGGAGCACCAUUUCGCUGCCAGUGAAGAAAUGAACAAAGAAAAUCUGGGCCAGGCAGGCAUCAAAAGAAAUAGUCUUGCGCUCAACCAGAAAGUCUGUAAUCACUCUAAGGGUA [A11U A27G U130C U132C], the self-cleavage was 0.92.

Turning to GUUAACGGUCUUAGGCCAUGGAACCUAGGAGCACCAUUUCGCUGCCAGCGAGGAAAUGAACAAAGAAAAUCUGGGCCAGGCAGGCAUCAAAAGAAAUAGUCUCGCGCUCAACCAGAAAGUCUGUAAUCAUUUUAAGGGUA [A11U A24C U49C A52G U103C], the self-cleavage came out at 0.87.

Regarding GUUAACGGUCUUAGGCCGUGGAAACUAGGAGCACCAUUUCGCUGCCAGUGAUGAAAUGAACAAAGAAAAUCUGGGCCAGGCAGGCAUCACGAGAAAUAGUCUUGCGCUCAACCGGAAAGUCUGUAAUCAUUUUAAGGGUA [A11U A18G A52U A90C A91G A114G], the self-cleavage amounted to 0.52.

GUUAACGGUCGUAGGCCAUGGAAACUAGGAGCACCAUUUCGCCGCCAGUGAAGAAAUGAACAAAGGAGAUCUGGGCCAGGCAGGCAUCAAAAGAAAUAGUCUUGCGCUCAACCAGAAAGUCUGUAAUCAUUUUAAGGGUA [A11G U43C A66G A68G]: the self-cleavage was found to be 0.9.

In the case of GUUAACGGUCGUAGGCCAUGGAAACUAGGAGCACCAUUUCGCCGCCAGUGAAGAAAUGAGCAAAGAAAGUCUGGGCCUGGCGGGCUUCAAAAGAAAUAGUCUUGCGCUCAACCAGAAAGUCUGUAAUCAUUUUAAGGGUA [A11G U43C A60G A69G A78U A82G A86U], the self-cleavage came out at 0.17.

Consider GUUAACGGUCGUAGGCCAUGGAAACUAGGAGCACCAUUUCGCUGCCAGUGAAGAAAUGAACAAAGAAAAUCUGGGCCAGGCAGGCAUCAAAAGAAAUAGUCUUGCGCUCAACCAGAAAGUCUGUAAUCAUCUUAAGGGUC [A11G U131C A140C], for which the self-cleavage is 0.97.

On to GUUAACGGUCUUAGGCCAUGGAAACUAGGAGCACCAUUUCGCUGCCAGUGGAGAAAUGAACAAAGAAAAUCUGGGCCAGGCAGGCAUCAAAAGAAAUAGCCUUGCGCCCAACCAGAAAGUCUGUAAUCACUUUAAGGGUA [A11U A51G U100C U108C U130C], for which the self-cleavage amounted to 0.

Take GUUAACGGUCUUAGGCCAUGGAAACUAGGAGCACCAUUUCGCUGCCAGUGGAGAAAUGUACAAAGAAAAUCUGGGCCAGGCAGGCAUCAAAAGAAAUAGUCUUGCGCUCAACCAGAAAGUCUGUAAUCAUUUUAAGGGUA [A11U A51G A59U]: the self-cleavage was 1.35.

Regarding GUUAACGGUCGUAGGCCAUGGAAACUAGGAGCACCAUUUCGCUGCCAGUGAAGAAAUGAACAAAGAAAACCUGGGCCAGGCAGGCAUCAAAAGAAAUAGACUUGCGCUCAACCAGAAAGUCUGUAAUCAUUUUAAGGGUA [A11G U70C U100A], the self-cleavage was determined as 0.24.

In the case of GUUAACGGUCGUAGGCCAUGGAAACUAGGAGCACCAUUUCGCUGCCAGUGAAGAAACGAACAAAGAAAAUCUGGGCCAGGCAGGCAUCAAAGGAAAUAGUCUUGCGCUCAACCAGAAAGUCUGUAAUCAUUUUAAGGGUA [A11G U57C A92G], the self-cleavage amounted to 0.91.

Take GUUAACGGUCGUAGGCCAUGGAAACUAGGAGCACCAUUUCGCUGCCAGUGAAGAAAUGAACAAAGAAAAUCUGGGCCAGGCAGGCACCAAAAGAAAUAGUCUUGCACUCAACCAGAAUGUCUGUAAUCAUUUUAAGGGUA [A11G U87C G106A A118U]: the self-cleavage came out at 0.04.

Consider GUUAACGGUCGUAGGCCAUGGAAACUAGGAGCACCAUUUCGCCGCCAGUGAAGAAAUGAACAAAGAAAAUCUGGGCCAGGCCGGCAUCAAAAGAAAUAGUCUUGCGCUCAACCAGAAAGUCUGUAAUCAUUUUAAGGGUA [A11G U43C A82C], for which the self-cleavage amounted to 0.13.

In the case of GUUAACGGUCUUAGGCCUUGGAAACUAGGAGCACCAUUUCGCUGCCUGUGAAGAAAUGAACAAAGAAAAUCUGGGCCAGGCUGGUACCAGAAGAAACAGUCUUGCGCUCAACUAGAAAGUCUGUAAUCAUUUUAAGGGUA [A11U A18U A47U A82U C85U U87C A90G U97C C113U], the self-cleavage was 0.01.

With GUUAACGGUCGUAGGCCAUGGAAACUAGGAGCACCAUUUCGCUGCCAGUGAAGAAAUGAACAAAGAAAAUCUGGGCCAGGCAGGCAUCAAAAGAAACAGUCUUGCGCUCAGCCAGAAAGUCUGUAAUCAUUUUAAGGGUA [A11G U97C A111G], the self-cleavage was determined as 0.06.

As to GUUAACGGUCUUAGGCCAUGGAGACUAGGAGCACCAUUUCGCUGCCAGUGAAGAAAUGAACAAAGAAAAUCUGGGCCAGGCAGGCAUCAAAGGAAAUAGUCUUGCGCUCAACCAGAAAGUCAGUAAUCAUUCUAAGGGUA [A11U A23G A92G U122A U132C], the self-cleavage was found to be 0.59.

As to GUUAACGGUCGUAGGCCAUGGAAACUAGGAGCACCAUUCCGCUGCCAGUGAAGAAACGAACAAAGAAAAUCUGGGCCAGGCAGGCAUCAAAAGAAAUAGUCUUGCGCUCAACCAGAAAGUCUGUAAUCAUUUUAAGGGUA [A11G U39C U57C], the self-cleavage amounted to 1.12.

Take GUUAACGGUCGUAGGCCAUGGAAACUAGGAGCACCAUUUCGCCGCCAGUGAAGAAAUGAACAAAGAAAAUCUGGGCCAGGCAGGCAACAAAAGAAAUAGUCUUGCGCUCAACCAGAAAGUCUGUAAUCAUUUUAAGGGUA [A11G U43C U87A]: the self-cleavage is 1.62.

With GUUAACGGUCGUAGGCCAUGGAAACUAGGAGCACCAUUCCGCUGCCAGUGAAGAAAUGAACAAAGAAGAUCUGGGCCAGGCAGGCAUCAAAAGAAAUAGUCUUGCGCUCAACCAGAAAGUCUGUAAUCAUUUUAAGGGUA [A11G U39C A68G], the self-cleavage stood at 1.45.

As to GUUAACGGUCUUAGGCCUUGGAAACUAGGAGCACCAUUUCGCUACCAGUGAAGAAACGAACAAAGAAAAUCUGGGCCAGGCAGGCAUCAAAAGAAAUAGUCUUGCGCUCAACCAGAAAGUCUGUAAUCAUUUUAAGGGUA [A11U A18U G44A U57C], the self-cleavage is 1.47.

Regarding GUUAACGGUCUUAGGCCAUGGAGACUAGGAGCACCAUUUCGCUGCCAGUGAAGAAAUGAACAAAGAAAAUCUGGGCCAGGCAGGCAUCAAAAGAAGUAGUCUUGCGCUCAACCAGAAAGUCUGUAAUCAUUUUAAGGGUA [A11U A23G A96G], the self-cleavage is 0.42.

For the variant GUUAACGGUCGUAGGCCAUGGAAACUAGGAGCACCAUUUCGCUGCCAGUGAAGAAAUGAACAAAGAAAAUCUGGGCCAGGCAGGCACCAAAAGAAAUAGUCUUGCGCUCAACCAGAUAGUCUGUAAUCAUUUUAAGGGUA [A11G U87C A117U], the self-cleavage was 0.79.

For the origin of these results see the RNAGym collection of RNA variant scans (doi:10.7554/elife.90254).
